# Measured values as given in the supplement of paper PMC11876631.
# ± gives the standard deviation of the averaged measurements. Laboratory Escherichia coli strains with one amino-acid change in an essential protein, pooled on minimal glucose agar with carbenicillin or gentamicin at twice the control MIC (plus kanamycin and chloramphenicol for the plasmids), 48 h. Fold change of barcode share against drug-free plates; higher = less susceptible. Active = above 20 in both replicates (the paper's putatively resistant). '<' = one read or none on drug, '>' = one read or none on a drug-free plate. Shares are relative, so most strains fall below 1 when a few take over. Listed are strains with at least 15 reads on both drug-free plates, and hits; most hits rest on fewer reference reads. Replicate rank correlation about 0.5. Edits are read from barcodes.
# B1: murJ; numbered along this chain (parent)
# chain: MNLLKSLAAVSSMTMFSRVLGFARDAIVARIFGAGMATDAFFVAFKLPNLLRRIFAEGAFSQAFVPILAEYKSKQGEDATRVFVSYVSGLLTLALAVVTVAGMLAAPWVIMVTAPGFADTADKFALTSQLLKITFPYILLISLASLVGAILNTWNRFSIPAFAPTLLNISMIGFALFAAPYFNPPVLALAWAVTVGGVLQLVYQLPHLKKIGMLVLPRINFHDAGAMRVVKQMGPAILGVSVSQISLIINTIFASFLASGSVSWMYYADRLMEFPSGVLGVALGTILLPSLSKSFASGNHDEYNRLMDWGLRLCFLLALPSAVALGILSGPLTVSLFQYGKFTAFDALMTQRALIAYSVGLIGLIVVKVLAPGFYSRQDIKTPVKIAIVTLILTQLMNLAFIGPLKHAGLSLSIGLAACLNASLLYWQLRKQKIFTPQPGWMAFLLRLVVAVLVMSGVLLGMLHIMPEWSLGTMPWRLLRLMAVVLAGIAAYFAALAVLGFKVKEFARRTV
# B2: valS; numbered along this chain (parent)
# chain: MEKTYNPQDIEQPLYEHWEKQGYFKPNGDESQESFCIMIPPPNVTGSLHMGHAFQQTIMDTMIRYQRMQGKNTLWQVGTDHAGIATQMVVERKIAAEEGKTRHDYGREAFIDKIWEWKAESGGTITRQMRRLGNSVDWERERFTMDEGLSNAVKEVFVRLYKEDLIYRGKRLVNWDPKLRTAISDLEVENRESKGSMWHIRYPLADGAKTADGKDYLVVATTRPETLLGDTGVAVNPEDPRYKDLIGKYVILPLVNRRIPIVGDEHADMEKGTGCVKITPAHDFNDYEVGKRHALPMINILTFDGDIRESAQVFDTKGNESDVYSSEIPAEFQKLERFAARKAVVAAVDALGLLEEIKPHDLTVPYGDRGGVVIEPMLTDQWYVRADVLAKPAVEAVENGDIQFVPKQYENMYFSWMRDIQDWCISRQLWWGHRIPAWYDEAGNVYVGRNEDEVRKENNLGADVVLRQDEDVLDTWFSSALWTFSTLGWPENTDALRQFHPTSVMVSGFDIIFFWIARMIMMTMHFIKDENGKPQVPFHTVYMTGLIRDDEGQKMSKSKGNVIDPLDMVDGISLPELLEKRTGNMMQPQLADKIRKRTEKQFPNGIEPHGTDALRFTLAALASTGRDINWDMKRLEGYRNFCNKLWNASRFVLMNTEGQDCGFNGGEMTLSLADRWILAEFNQTIKAYREALDSFRFDIAAGILYEFTWNQFCDWYLELTKPVMNGGTEAELRGTRHTLVTVLEGLLRLAHPIIPFITETIWQRVKVLCGITADTIMLQPFPQYDASQVDEAALADTEWLKQAIVAVRNIRAEMNIAPGKPLELLLRGCSADAERRVNENRGFLQTLARLESITVLPADDKGPVSVTKIIDGAELLIPMAGLINKEDELARLAKEVAKIEGEISRIENKLANEGFVARAPEAVIAKEREKLEGYAEAKAKLIEQQAVIAAL
# Variants of: B1
# Assay: barcode share on antibiotic plates over drug-free plates; higher = less susceptible
# Settings: with Escherichia coli (laboratory strain); antibiotic: carbenicillin; 2× MIC (3.1 µg/mL)
# Method: (§1)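 A pool of E. coli strains, each edited to carry one amino-acid change in an essential protein, was grown for 48 h on minimal glucose agar with or without antibiotic; strain barcodes were sequenced; mean of two replicates.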
row,Variant,fold change of barcode share
1,L448Q,0.222 ± 0.02
2,L448W,0.407 ± 0.007
3,L448D,0.241 ± 0.072
4,L448A,1.05 ± 0.69
5,L448P,0.501 ± 0.14
6,L496W,0.484 ± 0.21
7,L496D,0.629 ± 0.27
8,L496Q,0.393 ± 0.066
9,L496A,0.386 ± 0.059
10,M466D,0.38 ± 0.12
11,M466A,0.476 ± 0.049
12,M466W,0.245 ± 0.031
13,M466P,0.307 ± 0.039
14,M466Q,0.274 ± 0.014
15,V450A,0.267 ± 0.06
16,V450P,0.365 ± 0.16

row,Variant,fold change of barcode share
1,V450D,0.268 ± 0.13
2,V450Q,0.259 ± 0.02
3,V450W,0.177 ± 0.095
4,M482W,0.289 ± 0.047
5,M482P,0.401 ± 0.11
6,M482A,0.754 ± 0.21
7,M482Q,0.272 ± 0.00069
8,M482D,0.442 ± 0.073
9,V498D,0.371 ± 0.099
10,V498A,0.283 ± 0.072
11,V498P,0.277 ± 0.062
12,V498Q,0.365 ± 0.024
13,V484P,0.415 ± 0.039
14,V484A,0.248 ± 0.066
15,V484Q,0.3847 ± 0.0036
16,V484D,0.261 ± 0.0095

# Same assay, conditions: with Escherichia coli (laboratory strain); antibiotic: gentamicin; 2× MIC (MIC 0.45 µg/mL)
row,Variant,fold change of barcode share
1,L448Q,0.00934 ± 0.0093
2,L448W,0.00438 ± 0.0018
3,L448D,0.00731 ± 0.0054
4,L448A,0.339 ± 0.47
5,L448P,0.00564 ± 0.0057
6,L496W,0.0558 ± 0.026
7,L496D,0.00851 ± 0.007
8,L496Q,0.00663 ± 0.0019
9,L496A,0.0256 ± 0.031
10,M466D,0.00628 ± 0.001
11,M466A,0.0122 ± 0.014
12,M466W,0.00479 ± 0.0019
13,M466P,0.119 ± 0.16
14,M466Q,0.0131 ± 0.016
15,V450A,0.077 ± 0.1
16,V450P,0.00534 ± 0.0049
17,V450D,0.00522 ± 0.0024

row,Variant,fold change of barcode share
1,V450Q,0.00609 ± 0.0053
2,V450W,< 0.00501
3,M482W,0.00182 ± 0.0013
4,M482P,0.00284 ± 0.0028
5,M482A,0.012 ± 0.0065
6,M482Q,0.00612 ± 0.0072
7,M482D,0.0041 ± 0.00064
8,V498D,0.00221 ± 0.00065
9,V498A,0.00741 ± 0.0033
10,V498P,0.0025 ± 0.0011
11,V498Q,0.00899 ± 0.0055
12,V484P,0.00353 ± 0.00095
13,V484A,0.00626 ± 0.0047
14,V484Q,0.0102 ± 0.0072
15,V484W,< 0.0167
16,V484D,0.00782 ± 0.0075

# Variants of: B2
# Assay: as above
# Settings: with Escherichia coli (laboratory strain); antibiotic: carbenicillin; 2× MIC (3.1 µg/mL)
# Method: as §1
row,Variant,fold change of barcode share
1,L678W,0.3141 ± 0.0027
2,L678Q,0.379 ± 0.1
3,L678D,0.288 ± 0.14
4,L678P,0.331 ± 0.14
5,L678A,0.347 ± 0.059
6,V652P,0.458 ± 0.053
7,V652Q,0.299 ± 0.14
8,V652D,0.431 ± 0.23
9,V652A,0.246 ± 0.076
10,I757Q,0.558 ± 0.055
11,I757A,0.281 ± 0.2
12,I757W,0.286 ± 0.23
13,V506P,0.51 ± 0.25
14,V506Q,0.34 ± 0.0078
15,V506W,0.497 ± 0.086
16,V506A,0.287 ± 0.04
17,V506D,0.468 ± 0.2
18,F681W,0.482 ± 0.018
19,F681D,0.36 ± 0.044
20,F681Q,0.337 ± 0.037
21,F681A,0.36 ± 0.16
22,M505Q,0.278 ± 0.079
23,M505P,0.629 ± 0.22
24,M505D,0.35 ± 0.21

# Same assay, conditions: with Escherichia coli (laboratory strain); antibiotic: gentamicin; 2× MIC (MIC 0.45 µg/mL)
row,Variant,fold change of barcode share
1,L678W,0.00751 ± 0.008
2,L678Q,0.00424 ± 0.0023
3,L678D,0.00715 ± 0.003
4,L678P,0.00639 ± 0.0038
5,L678A,0.00737 ± 0.0057
6,V652P,< 0.00677
7,V652Q,0.0112 ± 0.0044
8,V652D,< 0.00685
9,V652A,< 0.00555
10,I757Q,0.0108 ± 0.0012
11,I757A,< 0.00633
12,V506P,< 0.002
13,V506Q,0.0169 ± 0.018
14,V506A,< 0.00381
15,F681W,0.00835 ± 0.0026
16,F681D,0.00571 ± 0.0065
17,F681Q,0.00489 ± 0.0032
18,F681A,0.00266 ± 0.0015
19,M505Q,0.0057 ± 0.0041
20,M505D,0.00705 ± 0.0067
